# Measured values published in PubChem BioAssay AID686978 (National Center for Advancing Translational Sciences (NCATS), 2013).
# Hit rate of the full screen: of about 420,000 compounds, about 64,000 (15%) were called active. The inconclusive results got no clear call from the source; some entries with a clear call stand among them for comparison. The call rests on the fitted dose curve; in most records, active means well fitted inhibition curve with a large enough effect; inconclusive means small, poorly fitted or top-dose-only effect; inactive means flat fitted curve, though single readings scatter. Potencies of inconclusive entries are left out as doubtful fits.
# Test: qHTS for Inhibitors of human tyrosyl-DNA phosphodiesterase 1 (TDP1): qHTS in cells in absence of CPT; further: nearly all actives have a fitted effect of over 55% in size
# Details: DT40 Tdp1-/- hTDP1 cells, no CPT, ATP luminescence, 48 h; activity change, negative = growth inhibition: at 46.2 µM (top of the series) unless noted
# Method in brief: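 Growth of hTDP1-complemented DT40 Tdp1-knockout cells is measured by ATP luminescence after at least 48 hr compound exposure at 37 °C, with DMSO substituting for the 20 nM CPT used in the parallel screen.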
# On the % scale 0 is the no-effect control and ±100 the full control effect; potency means the concentration at half of the fitted maximal effect; tags describe the fitted curve by direction and shape.
Compound,Potency,"activity change, negative = growth inhibition"
CCOC(=O)c1ccc(NC2=CC(c3ccc(O)c(OCC)c3)N(c3ccc(C(=O)OCC)cc3)C2=O)cc1 (stereo not drawn),active: 13 µM,–
CCOC(=O)N1CCN(C(=O)c2ccc3c(Cl)c4c(nc3c2)CCCC4)CC1,"inconclusive [inhibitor, single point]",–
COc1ccc(Br)cc1C(=O)Nc1ccccc1N1CCCC1,"inconclusive [inhibitor, single point]",–
C[C@@]12CCC3[C@@](CCC4[C@@]3(C)CCC[C@@]4(C)C(=O)Nc3ccc(Cl)cc3)(CC1=O)C2 (stereo partly drawn),"inconclusive [inhibitor, single point]",–
Cn1c(=O)c2cc(NC(=S)NCc3ccccc3F)ccc2n1Cc1ccc(F)cc1,"inconclusive [inhibitor, single point]",–
C=CCn1c(SCC(=O)N2CCc3ccccc3C2)nc2sc(C)c(C)c2c1=O,"inconclusive [inhibitor, single point]",–
Cc1cc(C)nc(SCc2nnc(SCC(=O)Nc3nccs3)n2Cc2ccco2)n1,–,inconclusive: -32.1% [inhibitor]
CC1(C)CC(=O)C(=Cc2cn(CCC#N)nc2-c2ccc(F)cc2)C(=O)C1,–,inactive: 2.95%
CCN(CC)CCN(C(=O)c1ccc2ccccc2c1)c1nc2ccc(F)cc2s1,–,inactive: -3.68%
CC(c1nnc(SCC(=O)Nc2cccnc2Cl)n1Cc1ccccc1)N(C)C (stereo not drawn),–,inactive: -0.246%
COc1cc(-c2cc(C(=O)NCc3ccco3)c3ccccc3n2)cc(OC)c1OC,active: 2.59 µM,–
CCc1ccc(N2C(=O)Cc3c2nc(N)c(C#N)c3N)cc1,–,inactive: -2.35%
c1ccc(-c2ccc3[nH]ccc3c2)cc1,"inconclusive [inhibitor, single point]",–
O=C(O)CCn1c(O)c(C=C2N=c3ccccc3=N2)sc1=S,active: 18.4 µM,–
Cc1ccc(S(=O)(=O)NCC(=O)N(CC2CCCO2)C(C(=O)NC2CCCCC2)C(C)C)cc1 (stereo not drawn),–,inactive: -28.8%
COc1ccccc1Nc1cc(C(=O)NCc2cccnc2)c2ccccc2n1,"inconclusive [inhibitor, partial curve, poor fit]",–
C/C(CCc1ccccc1)=N\NC(=O)c1ccccc1[N+](=O)[O-],–,inactive: -4.89%
NC(=O)c1nsc(C(=O)N(c2ccccc2)C(C(=O)NC2CCCCC2)c2ccc(O)cc2)c1N (stereo not drawn),–,inconclusive: -30.6% [inhibitor]
Cc1cc(-c2nn(C)c(=O)c3ccccc23)cc(C)c1O,"inconclusive [inhibitor, partial curve]",–
Cc1ccc(-c2cnc(C(O)c3cc(C)cc(C)c3)[nH]2)cc1 (stereo not drawn),"inconclusive [inhibitor, partial curve, poor fit]",–
O=C(Cc1ccc(F)cc1)N1CCC(c2nc3c(nnn3Cc3ccc(F)cc3)c(=O)[nH]2)CC1,"inconclusive [inhibitor, single point]",–
CC(=O)Nc1ccc(OCC(O)Cn2c(C)nc3ccccc32)cc1 (stereo not drawn),"inconclusive [inhibitor, partial curve]",–
CCN1CCN(CCCNC(=O)CNC(=O)c2nn(-c3ccc(OC)cc3OC)c(=O)c3ccccc23)CC1,–,inactive: -16.7%
O=C(CCNS(=O)(=O)c1ccccc1)N1CCC(Cc2ccccc2)CC1,"inconclusive [inhibitor, single point]",–
CCc1nc2ccc(C(=O)NCCCN3CCCC3=O)cn2c1N(CC)Cc1cccc(Br)c1,"inconclusive [inhibitor, single point]",–

Compound,Potency,"activity change, negative = growth inhibition"
O=C(c1ccc2[nH]c3c(c2c1)CCCC3)N1CCN(c2ccc(F)cc2)CC1,"inconclusive [inhibitor, single point]",–
COc1cccc(NC(=O)COC(=O)C2CC2)c1,–,inactive: 9.55%
O=C(Cn1nnc(-c2ccc(F)cc2)n1)NC(=O)NC1CCCCC1,"inconclusive [inhibitor, partial curve, poor fit]",–
Cc1cccc(N2CCN(c3nc(C)cc(C)c3C#N)CC2C)c1 (stereo not drawn),"inconclusive [inhibitor, single point]",–
CCCCNc1c(-c2cc3ccccc3o2)nc2nc(C)cc(C)n12,active: 23.1 µM,–
CN(C)C(=O)c1ccc(-c2nc(Nc3ccncc3)c3ccccc3n2)cc1,"inconclusive [inhibitor, partial curve, poor fit]",–
COc1ccc(-c2c(-c3ccccc3OC)sc3ccccc23)cc1OC,–,inactive: 4.27%
COc1ccc(CNC(=O)COC(=O)c2n[nH]c3ccccc23)cc1OC,"inconclusive [inhibitor, single point]",–
CC1CCN(C(=O)/C(=C/c2ccccc2Cl)c2ccccc2)CC1,"inconclusive [inhibitor, single point]",–
O=S1(=O)CC(N2CCCC2)CN1Cc1cn(Cc2ccc(F)cc2)nn1 (stereo not drawn),–,inactive: -15%
O=C(COC(=O)c1cccc(S(=O)(=O)NCc2ccccc2)c1)NCC1CCCO1 (stereo not drawn),–,inactive: -20.6%
O=C(NCCSCc1ccccc1Cl)C1CCN(S(=O)(=O)Cc2ccccc2)CC1,"inconclusive [inhibitor, single point]",–
COc1ccc(S(=O)(=O)N2CCCCCC2)cc1C(=O)N(C)Cc1ccc(C(C)(C)C)cc1,"inconclusive [inhibitor, single point]",–
Cc1ccc(N(C(=O)CNC(=O)c2ccco2)C(C(=O)NC2CCCCC2)c2ccncc2)cc1F (stereo not drawn),–,inactive: 4.3%
CSc1nnc(C)c(=O)n1COC(=O)COc1ccc2ccccc2c1,"inconclusive [inhibitor, single point]",–
COc1ccc(OCC(=O)Nc2ccc(O)c(-c3nc4ccccc4s3)c2)cc1,"inconclusive [inhibitor, partial curve]",–
Cc1ccc(C)c(N2CCN(C(C(=O)NC3CCCC3)C(C)C)CC2)c1 (stereo not drawn),active: 20.6 µM,–
CCNc1nc(NC(C)C)nc(Oc2ccc(=O)n(C)n2)n1,–,inactive: 13.3%
COc1ccccc1NC(=S)N(Cc1cccs1)C1CCCC1,active: 6.51 µM,–
COc1ccc(CC(=O)N2CC(=O)Nc3ccc(Br)cc3C2c2ccc(F)cc2)cc1 (stereo not drawn),"inconclusive [inhibitor, single point]",–
COc1cccc(/C=N/Nc2nc3ccccc3n3cnnc23)c1O,active: 5.8 µM,–
O=C(CC1C(=O)NCCN1Cc1ccc(F)cc1)NC1CCCCCCC1 (stereo not drawn),"inconclusive [inhibitor, single point]",–
Cc1ccc(N=Cc2cc3c(cc2O)OC(N)=C(C#N)C3c2ccccc2)cc1 (stereo not drawn),active: 16.4 µM,–
Fc1ccc(-c2csc(N3CCOCC3)n2)cc1,–,inconclusive: -32.3% [inhibitor]
Cc1cccc(NC(=O)c2nc[nH]c2C(=O)N[C@@H](C)c2ccccc2)c1,active: 29.1 µM,–

Compound,Potency,"activity change, negative = growth inhibition"
O=C(NCC1(c2ccccc2)CCCC1)c1ccc(Br)o1,active: 23.1 µM,–
Cc1c(C(=O)Nc2ccc(F)cc2)nnn1-c1cccc(C(F)(F)F)c1,active: 9.2 µM,–
COC(=O)Cc1ccc(NC(=S)NCCSc2ccc(C)cc2)cc1,"inconclusive [inhibitor, single point]",–
O=C(NCc1ccccn1)c1ccc(Cl)c(S(=O)(=O)Nc2ccccc2C(=O)NCc2ccccn2)c1,–,inconclusive: -30.3% [inhibitor]
CC(=O)c1ccc(OCCCC(=O)Nc2ccc(Cl)c(S(=O)(=O)N3CCOCC3)c2)cc1,active: 20.6 µM,–
Cc1nc2ccccc2c(=O)n1/N=C/c1ccc(O)c(O)c1O,"inconclusive [inhibitor, single point]",–
Cc1ccc(Cn2ncc(C)c2N)o1,"inconclusive [inhibitor, single point]",–
COc1ccc(Cc2c(-c3ccc(OC)c(OC)c3)nc3ccc(C)cn23)c(C)c1,active: 16.4 µM,–
CCNC(=S)NC1CC2CCCC(C1)N2CCc1ccccc1 (stereo not drawn),–,inactive: 0.486%
CCC(C)(C)n1nnnc1C(c1cccs1)N1CCN(Cc2ccccc2)CC1 (stereo not drawn),"inconclusive [inhibitor, partial curve, poor fit]",–
CN(C)S(=O)(=O)c1cccc(NC(=O)c2ccncc2)c1,"inconclusive [inhibitor, partial curve]",–
CCOC(=O)C1(Cc2cccc(OC)c2)CCN(Cc2cccc(O)c2)CC1,"inconclusive [inhibitor, single point]",–
O=C(COc1ccc(Br)cc1)N(Cc1cccs1)C1CCS(=O)(=O)C1 (stereo not drawn),–,inactive: -5.32%
O=C(CSc1nnnn1C1CC1)N1CCN(c2cccc(Cl)c2)CC1,"inconclusive [inhibitor, single point]",–
C=CCc1cccc(/C=N/NC(=O)C(C)Nc2ccc(C)cc2)c1O (stereo not drawn),active: 8.2 µM,–
Cc1ccccc1C(=O)NNC1=NCCC1,–,inactive: -0.801%
O=[N+]([O-])c1cccc(-c2ccc(C(=S)N3CCN(c4ccc(F)cc4)CC3)o2)c1,–,inactive: -12%
CC1CCCCC1NC(=O)CCCn1c(=S)[nH]c2ccsc2c1=O (stereo not drawn),–,inactive: 0.948%
COC(=O)c1sc(S(=O)(=O)NC(C)C(=O)O)c(C(=O)OC)c1C (stereo not drawn),–,inactive: -8.56%
CCC1CN(C(=O)N2CCC(C(=O)NCCC3=CCCCC3)CC2)c2cc(C)ccc2O1 (stereo not drawn),active: 14.6 µM,–
COc1ccc(/C=N/Nc2nc3ccccc3c(=O)n2-c2ccccc2)cc1OC,"inconclusive [inhibitor, partial curve, poor fit]",–
O=C(COc1ncnc2cc([N+](=O)[O-])ccc12)NCc1ccc2c(c1)OCO2,–,inactive: 1.67%
Cc1csc(-c2nc3ccccc3n2C(C)c2nc3ccccc3[nH]2)c1 (stereo not drawn),"inconclusive [inhibitor, single point]",–
